According to a compilation of properties of binary mixtures (doi:10.1021/acs.jced.1c00111):
The densities may have been worked out from excess volumes.

Experiment: xn = mol fraction of the nth substance listed
Conditions: 100 kPa

CC[NH+](C)CC.CS(=O)(=O)[O-] + O
Conditions | mass density [kg/m3]
298.15 K, x1 = 0.0155 | 1016.5
298.15 K, x1 = 0.0356 | 1036.7
298.15 K, x1 = 0.0571 | 1054.5
298.15 K, x1 = 0.0757 | 1067.2
298.15 K, x1 = 0.1234 | 1090.5
298.15 K, x1 = 0.1582 | 1100.8
298.15 K, x1 = 0.206 | 1111.3
298.15 K, x1 = 0.3246 | 1124.2
298.15 K, x1 = 0.5018 | 1131.6
298.15 K, x1 = 0.5783 | 1133.3
298.15 K, x1 = 0.7782 | 1135.9
303.15 K, x1 = 0.0155 | 1014.8
303.15 K, x1 = 0.0356 | 1034.7
303.15 K, x1 = 0.0571 | 1052.1
303.15 K, x1 = 0.0757 | 1064.6
303.15 K, x1 = 0.1234 | 1087.5
303.15 K, x1 = 0.1582 | 1097.8
303.15 K, x1 = 0.206 | 1108.1
303.15 K, x1 = 0.4263 | 1126.1
303.15 K, x1 = 0.5018 | 1128.2
303.15 K, x1 = 0.5783 | 1129.9
303.15 K, x1 = 0.7782 | 1132.5
308.15 K, x1 = 0.0356 | 1032.5
308.15 K, x1 = 0.0571 | 1049.6
308.15 K, x1 = 0.0757 | 1061.9
308.15 K, x1 = 0.0967 | 1073.8
308.15 K, x1 = 0.1234 | 1084.5
308.15 K, x1 = 0.1582 | 1094.7
308.15 K, x1 = 0.206 | 1105
308.15 K, x1 = 0.3246 | 1117.7
308.15 K, x1 = 0.4263 | 1122.8
308.15 K, x1 = 0.6771 | 1128
313.15 K, x1 = 0.0155 | 1011
313.15 K, x1 = 0.0356 | 1030.2
313.15 K, x1 = 0.0757 | 1059.2
313.15 K, x1 = 0.0967 | 1070.9
313.15 K, x1 = 0.1234 | 1081.5
313.15 K, x1 = 0.1582 | 1091.6
313.15 K, x1 = 0.206 | 1101.7
313.15 K, x1 = 0.5018 | 1121.6
313.15 K, x1 = 0.5783 | 1123.3
313.15 K, x1 = 0.6771 | 1124.6
313.15 K, x1 = 0.7782 | 1125.7
318.15 K, x1 = 0.0155 | 1008.8
318.15 K, x1 = 0.0356 | 1027.8
318.15 K, x1 = 0.0571 | 1044.4
318.15 K, x1 = 0.0757 | 1056.4
318.15 K, x1 = 0.0967 | 1067.9
318.15 K, x1 = 0.1234 | 1078.5
318.15 K, x1 = 0.206 | 1098.5
318.15 K, x1 = 0.3246 | 1111.1
318.15 K, x1 = 0.4263 | 1116.1
318.15 K, x1 = 0.5018 | 1118.2
318.15 K, x1 = 0.5783 | 1119.9
318.15 K, x1 = 0.6771 | 1121.3
318.15 K, x1 = 0.7782 | 1122.4
323.15 K, x1 = 0.0155 | 1006.5
323.15 K, x1 = 0.0356 | 1025.2
323.15 K, x1 = 0.0571 | 1041.7
323.15 K, x1 = 0.0757 | 1053.5
323.15 K, x1 = 0.0967 | 1064.9
323.15 K, x1 = 0.1234 | 1075.4
323.15 K, x1 = 0.1582 | 1085.2
323.15 K, x1 = 0.206 | 1095.3
323.15 K, x1 = 0.3246 | 1107.8
323.15 K, x1 = 0.4263 | 1112.8
323.15 K, x1 = 0.5018 | 1114.9
323.15 K, x1 = 0.5783 | 1116.6
323.15 K, x1 = 0.6771 | 1118
323.15 K, x1 = 0.7782 | 1119
328.15 K, x1 = 0.0155 | 1004
328.15 K, x1 = 0.0356 | 1022.6
328.15 K, x1 = 0.0571 | 1038.9
328.15 K, x1 = 0.0757 | 1050.6
328.15 K, x1 = 0.0967 | 1061.9
328.15 K, x1 = 0.1234 | 1072.2
328.15 K, x1 = 0.3246 | 1104.5
328.15 K, x1 = 0.4263 | 1109.5
328.15 K, x1 = 0.5783 | 1113.3
328.15 K, x1 = 0.6771 | 1114.6
333.15 K, x1 = 0.0155 | 1001.4
333.15 K, x1 = 0.0356 | 1019.8
333.15 K, x1 = 0.0571 | 1036
333.15 K, x1 = 0.0757 | 1047.5
333.15 K, x1 = 0.1234 | 1069
333.15 K, x1 = 0.1582 | 1078.8
333.15 K, x1 = 0.206 | 1088.7
333.15 K, x1 = 0.4263 | 1106.2
333.15 K, x1 = 0.5783 | 1110
333.15 K, x1 = 0.6771 | 1111.3
333.15 K, x1 = 0.7782 | 1112.4
338.15 K, x1 = 0.0155 | 998.7
338.15 K, x1 = 0.0356 | 1017
338.15 K, x1 = 0.0757 | 1044.4
338.15 K, x1 = 0.0967 | 1055.6
338.15 K, x1 = 0.1234 | 1065.8
338.15 K, x1 = 0.1582 | 1075.5
338.15 K, x1 = 0.206 | 1085.3
338.15 K, x1 = 0.7782 | 1109.1
343.15 K, x1 = 0.0155 | 996.4
343.15 K, x1 = 0.0356 | 1014
343.15 K, x1 = 0.0571 | 1029.9
343.15 K, x1 = 0.0757 | 1041.1
343.15 K, x1 = 0.0967 | 1052.4
343.15 K, x1 = 0.1234 | 1062.5
343.15 K, x1 = 0.1582 | 1072.1
343.15 K, x1 = 0.206 | 1082
343.15 K, x1 = 0.4263 | 1099.6
343.15 K, x1 = 0.5018 | 1101.7
343.15 K, x1 = 0.5783 | 1103.4
343.15 K, x1 = 0.6771 | 1104.7
343.15 K, x1 = 0.7782 | 1105.8
348.15 K, x1 = 0.0155 | 993.8
348.15 K, x1 = 0.0356 | 1011
348.15 K, x1 = 0.0571 | 1026.7
348.15 K, x1 = 0.0757 | 1037.8
348.15 K, x1 = 0.0967 | 1049.1
348.15 K, x1 = 0.1234 | 1059.2
348.15 K, x1 = 0.1582 | 1068.8
348.15 K, x1 = 0.206 | 1078.6
348.15 K, x1 = 0.3246 | 1091.1
348.15 K, x1 = 0.4263 | 1096.2
348.15 K, x1 = 0.5018 | 1098.4
348.15 K, x1 = 0.7782 | 1102.5
